Data from the supplement of paper PMC4166925.
± gives the standard deviation of the averaged measurements. Whole data set: some 33,000 sequences, median “E-score (dimensionless, -0.5 to 0.5)” near -0.046, cut for the highest 2% near 0.36. Some of the results follow.

The sequences below were run on T1, SpTbr T-box DNA-binding domain (GST fusion) (assay: PBM E-score of 8-mer (E-score (dimensionless, -0.5 to 0.5)); Tbr is Tbrain of the sea star Patiria miniata (Pm) or the sea urchin Strongylocentrotus purpuratus (Sp); higher = stronger binding preference; most listed sequences are background and not binding sites). Conditions: the construct has about 5 more residues each side.
T1 sequence: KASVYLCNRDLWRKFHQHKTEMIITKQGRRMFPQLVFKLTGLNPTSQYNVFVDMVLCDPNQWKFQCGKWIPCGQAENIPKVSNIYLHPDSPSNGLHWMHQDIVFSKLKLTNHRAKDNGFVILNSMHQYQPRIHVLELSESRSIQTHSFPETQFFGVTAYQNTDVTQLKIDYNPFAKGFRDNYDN
In short: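 Each ungapped 8-mer received an enrichment E-score from the Universal PBM Analysis Suite, averaged over duplicate arrays. The proteins were Tbr T-box DNA-binding domains, covering the whole T-box plus about five flanking residues, fused to GST and expressed in BL21 E. coli at 20 °C before glutathione affinity purification. Universal Agilent oligonucleotide arrays were made double-stranded by primer extension and incubated with 200 nM protein in PBS (pH 7.5). The arrays were then scanned and quantified, and every 8-mer was scored from probe intensities.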

| Sequence | PBM E-score of 8-mer |
| --- | --- |
| CGCAGCGA | 0.123 ± 0.085 |
| CGCGCGTC | 0.285 ± 0.0037 |
| ATTGTCGC | 0.263 ± 0.028 |
| ATATGAGG | -0.0598 ± 0.035 |
| CGAAGCCC | -0.203 ± 0.036 |
| GGCCACAA | 0.0675 ± 0.11 |
| AAGCAGTG | -0.0374 ± 0.056 |
| GAAACGGA | -0.0529 ± 0.085 |
| CGCAGGCC | -0.219 ± 0.079 |
| GTGCACGA | 0.0777 ± 0.035 |
| GGAGTGAC | 0.276 ± 0.028 |
| CAGAGAGG | -0.256 ± 0.071 |
| CCTTCTCG | -0.0292 ± 0.051 |
| ATGATATG | -0.0268 ± 0.05 |
| GTCGAACA | 0.0974 ± 0.0084 |
| ACTTTGAA | -0.115 ± 0.07 |
| CAGTAGTC | -0.277 ± 0.0045 |
| CACCGCTC | -0.0244 ± 0.057 |
| ATCACCAC | 0.113 ± 0.004 |
| ATAAGGGC | -0.203 ± 0.01 |
| ACTTAGCG | 0.132 ± 0.038 |
| AGGCAAAC | -0.124 ± 0.076 |
| AATCTAAA | -0.114 ± 0.18 |
| CTGATATC | -0.129 ± 0.0017 |
| AGATGAGA | -0.0859 ± 0.041 |
| ACCCTGAT | -0.0972 ± 0.0089 |

| Sequence | PBM E-score of 8-mer |
| --- | --- |
| AACGATGG | -0.114 ± 0.037 |
| ACAGAACT | -0.144 ± 0.0088 |
| AAGTCTAG | -0.18 ± 0.1 |
| ACCATGAC | -0.0371 ± 0.016 |
| ACACAGTA | 0.116 ± 0.02 |
| ATTTGACC | -0.268 ± 0.041 |
| GCAAGGAC | -0.0951 ± 0.075 |
| GCACCTGA | 0.386 ± 0.0077 |
| AAGACAAC | -0.00027 ± 0.037 |
| GCGGAAAA | -0.0586 ± 0.00091 |
| TCTGCACA | 0.174 ± 0.07 |
| GACTGTTA | 0.199 ± 0.029 |
| CTGTTCCA | -0.12 ± 0.029 |
| AAGCAGGC | -0.0614 ± 0.02 |
| ATCATCCG | -0.0848 ± 0.11 |
| TCGGCACA | 0.183 ± 0.032 |
| GACGGCCC | -0.127 ± 0.05 |
| ACCCGGCT | -0.22 ± 0.011 |
| CCGAGTTA | -0.114 ± 0.095 |
| ATGGGTGC | 0.131 ± 0.087 |
| CTTCGTGA | 0.06 ± 0.073 |
| AGGAGTCC | -0.268 ± 0.06 |
| AGGATCTC | 0.0127 ± 0.052 |
| AAACACTC | 0.167 ± 0.029 |
| CTGCACAA | -0.0168 ± 0.015 |
| CAACCGAC | 0.0155 ± 0.024 |

| Sequence | PBM E-score of 8-mer |
| --- | --- |
| AGCACACA | 0.113 ± 0.046 |
| ATTTGATG | -0.207 ± 0.0081 |
| ACGCTCTG | -0.0868 ± 0.028 |
| CCACCATA | -0.12 ± 0.0082 |
| GTCTCCCA | -0.0763 ± 0.029 |
| ACATTCAC | 0.26 ± 0.018 |
| ACGTTAAC | 0.255 ± 0.013 |
| CGAAGATA | 0.0301 ± 0.04 |
| AGAAGGGG | 0.0152 ± 0.044 |
| CATCCTTA | -0.00751 ± 0.052 |
| CCTGCGCG | 0.156 ± 0.018 |
| CCGCCTCA | 0.00768 ± 0.15 |
| ATTGACTA | -0.198 ± 0.0081 |
| CCAGGGAG | -0.214 ± 0.045 |
| CTCTTGGA | -0.2 ± 0.00063 |
| GAAATCTC | 0.0351 ± 0.0081 |
| GGCCGTCA | 0.029 ± 0.026 |
| AAAGTCCG | 0.0167 ± 0.069 |
| AGACTGAA | -0.164 ± 0.0092 |
| ACCTCCAT | 0.0951 ± 0.0064 |
| CCCGTTCG | 0.0398 ± 0.071 |
| AACTTGGT | -0.0559 ± 0.074 |
| CACGAGAC | -0.0763 ± 0.018 |
| CCGAACTA | -0.132 ± 0.026 |
| ATTCAGAG | -0.133 ± 0.01 |
| GTCGGTCA | -0.0581 ± 0.011 |

| Sequence | PBM E-score of 8-mer |
| --- | --- |
| ACGCCTAG | 0.269 ± 0.023 |
| AAACGGTT | -0.101 ± 0.098 |
| CGGGTCAC | 0.195 ± 0.02 |
| CGTATCAG | 0.0421 ± 0.075 |
| AGAATCGA | -0.069 ± 0.012 |
| GTGCGTCA | 0.187 ± 0.009 |
| CAACTAGC | 0.0176 ± 0.017 |
| CTTTTAAC | 0.114 ± 0.064 |
| GTGCCGTA | -0.0304 ± 0.0083 |
| GGTACGCA | -0.181 ± 0.028 |
| CGGACAGA | -0.144 ± 0.016 |
| CCCGGACA | 0.0253 ± 0.053 |
| ATCCAGCC | -0.0901 ± 0.0022 |
| CTTATGTA | -0.274 ± 0.063 |
| TAACGTAA | -0.146 ± 0.036 |
| ACACGCGA | 0.262 ± 0.056 |
| TAGATTCA | -0.00728 ± 0.084 |
| GAGGAGGA | -0.0237 ± 0.037 |
| CCCTGCCG | 0.055 ± 0.051 |
| AATTATTG | -0.246 ± 0.057 |
| ACCGGTAA | -0.0482 ± 0.092 |
| GTGTCGTA | 0.3153 ± 0.0016 |
| ACCGTTAG | 0.0867 ± 0.055 |
| AGCCAATG | -0.218 ± 0.056 |
| AATATGAC | 0.0199 ± 0.11 |
| CCTATTAA | -0.139 ± 0.069 |

| Sequence | PBM E-score of 8-mer |
| --- | --- |
| CTCTCAGA | -0.187 ± 0.0034 |
| ACTCGTGG | -0.0812 ± 0.051 |
| CAGATAAC | 0.0585 ± 0.039 |
| GCCGTACA | -0.145 ± 0.04 |
| CCCGCATA | -0.195 ± 0.013 |
| AGAGAGGA | -0.144 ± 0.0029 |
| ATTTCTGC | -0.201 ± 0.01 |
| CTTAAGCA | -0.00802 ± 0.015 |
| CCGCCAAC | 0.184 ± 0.013 |
| GTGAGAAA | 0.441 ± 0.016 |
| CCACGGGG | -0.00017 ± 0.037 |
| AAAGAGTT | 0.0902 ± 0.077 |
| AAACAACC | 0.00173 ± 0.005 |
| GTTAGAAA | 0.13 ± 0.031 |
| CCCTTTCG | -0.000915 ± 0.066 |
| AACTTCAC | 0.147 ± 0.036 |
| AGGCTAGC | -0.0657 ± 0.01 |
| AGTTCTAG | -0.104 ± 0.036 |
| CAGCCAAG | -0.0575 ± 0.018 |
| AACTGGGG | -0.216 ± 0.021 |
| ATGTAACG | -0.0468 ± 0.037 |
| AAAGACAC | 0.148 ± 0.0063 |
| ATACTACC | -0.127 ± 0.025 |
| CGAACAAC | 0.1781 ± 9.9e-05 |
| ATAATACA | -0.113 ± 0.092 |
| CGTCAGCC | 0.0402 ± 0.028 |
